# ± gives the standard deviation of the averaged measurements. The list shows a part of the results.
# Tested on: PfAP2-G AP2 domain (GST-tagged)
# Test: gcPBM binding intensity (ln(normalized median fluorescence intensity)); higher = stronger DNA binding
# How it was run: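 GST-tagged P. falciparum DNA-binding domains, expressed in E. coli (about 25 μg on average), were applied for 1 h to an Agilent 4 × 180k array of primer-extended double-stranded 36-bp intergenic genomic probes plus negative controls. The binding buffer was 1× PBS with 1% milk, 0.2 mg/ml BSA, 0.5% salmon testes DNA and 0.03% Triton X-100. Bound protein was detected with Alexa488 anti-GST antibody and scanned at 488 nm. Binding intensity is the highest Masliner-normalised natural-log median intensity across replicate spots of either probe orientation.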
row,Sequence,gcPBM binding intensity (ln)
1,TATAGCATAAATATGTGTACATATTTATATGATATT [XGTACX_site6333],11.4 ± 0.86
2,TATATATAATATTATACACACATATATGCATAATAT [CACACA_site54],9.99 ± 0.17
3,TATTTATTTATATAAACACACATAAATATAAATATA [CACACA_site6653],9.865 ± 0.049
4,AGTTTAGAATTTAATACACACAAAAAAAAAAAATTA [CACACA_site7698],10.1 ± 0.35
5,AACGTTCAATTTAAATGTACAAATGTATTTAAATAT [XGTACX_site315],10.6 ± 0.35
6,AAATACAAAATTGTTACACACATATTAAGTATGACA [CACACA_site4421],10 ± 0.13
7,TACACAAATATATATATATATATATATATATATATA [XGTACX_negctrl_site305],10.1 ± 0.91
8,TTTCTTTTTTCATTTACACACAATAATATAAGAATA [CACACA_site3164],10.1 ± 0.19
9,CTGGAGGATGAAAAAAGTACAAAAGGAGGAAATGTA [XGTACX_site8846],11.3 ± 0.9
10,TATTTTAATTATAAATTTAAAAAAAAAAAGAAAAAA [CACACA_negctrl_site1674],9.88 ± 0.28
11,TGCTTATATATACGTGCACACATATATATAAGATAT [CACACA_site8516],10.4 ± 0.3
12,ATAAATAATGTTGACACACACAATAATCTTATTATG [CACACA_site3593],10.3 ± 0.27
13,CCCCATATAATGAACACACACACTCCTCATAATTAA [CACACA_site628],10.8 ± 0.42
14,ATGTCCTCAATGTTTACACACTCTTTTATATAAGTT [CACACA_site1460],11.4 ± 1
15,AGCTCATGCAGGTGTACACAAAAAGAAAAAAAATAA [CACACA_site4828],11.7 ± 0.86
16,AAAACAAATATATTAACACACAAACATATAAACAAA [CACACA_site6052],10.11 ± 0.092
17,AACATAAATATATATAGTACATATATATATATTCAA [XGTACX_site7287],10.9 ± 0.63
18,ATATAGATCAGACACACACACATGTTTTAAAACTAT [CACACA_site6186],10.2 ± 0.11
19,AAGGAATAATATAAAACACACACATAAATATAAATA [CACACA_site9115],9.96
20,CGAAATATTATGTACGCACACACATTTTTAATATAT [CACACA_site3852],11.5 ± 0.76
21,TATTAATTTATATCAACACACAAAATCAATATACTT [CACACA_site1757],9.94 ± 0.16
22,GTGAAATGGAAAAAAAGTACAGATTACATAAGTATT [XGTACX_site6355],11.5 ± 1
23,AATATATGGTATAATTGTACAAAAAAAAAAAAAAAA [XGTACX_site1476],10.8 ± 0.77

row,Sequence,gcPBM binding intensity (ln)
1,TCTTTAATGAACAAATGTACAAGAACAATACCCGCA [XGTACX_site2047],11.1 ± 0.42
2,CTTTAACCTTTTTATTGTACTTTTAATATTTTAAAA [XGTACX_site4457],11.4 ± 0.86
3,TTAATATATTTAAATATATATAAAATATATAATATG [CACACA_negctrl_site880],9.695 ± 0.078
4,AATAAAATAAGAAGCACACAAATATTATATATAAAA [CACACA_site3980],9.93 ± 0.042
5,TTTTAAATAATACATACATGCATATATACACATATA [TGCATGCA_site8],9.92 ± 0.042
6,TGAAACCATAAAGAATGTACACAGCGGTATAAGTTA [XGTACX_site674],11.1 ± 0.59
7,TTTTGGAATTTTAGCTGTACTTTTCCTATTTTGTAT [XGTACX_site7679],11.6 ± 0.94
8,TTCTTTTCTTCTACATGTACAAATATTATATATATA [XGTACX_site2996],10.9 ± 0.65
9,TTAGGTGTATATAATTGTACATTTTGGAAATTATAC [XGTACX_site5492],10.8 ± 0.5
10,ATCTTTCATCTACCAAGTACAAATTACTTTTTTTTT [XGTACX_site7001],10.8 ± 0.31
11,TATATAACTGTCTTCACACACACATATAAATAAATA [CACACA_site7317],10.1 ± 0.22
12,TATTTCACAACTTGTCGTACATTAATTGTATTATTT [XGTACX_site997],11.4 ± 0.86
13,ATTATTATTAATAGTACACACTATGGCATTTCAATA [CACACA_site5388],11.2 ± 0.8
14,AGCTCGGAAAAATTAGCATGCAAAAAAAAAAAAAAA [TGCATGCA_site658],9.65 ± 0.28
15,TCTTATTTAAAAATAGCACACATTATGTATATATAT [CACACA_site2822],10 ± 0.11
16,TATTTATATTTATATACACACTATATAACTCAAACA [CACACA_site6611],9.93 ± 0.11
17,AATTGTTCGATATATGCACACAGTTTTGTTATTTTT [CACACA_site1615],10.05 ± 0.099
18,TTTTTTAAAATATATATAATGAATTTTTTTTTTTTT [CACACA_negctrl_site1577],9.45 ± 0.22
19,AAAGAAAAAAAAAAAAGTACATAAATATAAAAAGAA [XGTACX_site6753],11.5 ± 0.89
20,ATATATATATATATATGTACATATTATTAATAATAT [XGTACX_site6667],11.2 ± 0.74
21,CTAGCAAATACATACACACACACACGGATACCTATA [CACACA_site7609],10.2 ± 0.16
22,TATATAACTTTATTTTTCTTTACTTATTTTATTTTA [GTGCAC_negctrl_site66],9.64 ± 0.3
23,GTATAATATGAACACACACACACACCCAAAAAAAAA [CACACA_site5152],10.4 ± 0.4

row,Sequence,gcPBM binding intensity (ln)
1,TTATGGAACCCCATTCGTACATAAATATTTTATATA [XGTACX_site7112],11.2 ± 0.79
2,TTTTTTTTTTTGTGAGTGCACGTATGAAGAGAAAAA,10.9 ± 0.8
3,ATACATATTAACAAGGTGCAAATGGATTTCATAAAA [GTGCAC_site9775],10.1 ± 0.18
4,TTTTTTATTTTAATGTATTATTTTTATGTAATATAT [GTGCAC_negctrl_site391],9.62 ± 0.085
5,GATATGATTACCTTATGGTGTTTTTGATGGATAGTT [CACACA_negctrl_site1504],9.98 ± 0.057
6,TTTTATTATTTATATACACACTTGCTGAAATGTTAT [CACACA_site5919],10.05 ± 0.071
7,CGGTATTTTTTAATTTGTACGCATATACAATAATTA [XGTACX_site8603],11.5 ± 1.1
8,TATAATAATAATGATAGTACGTATGAGTTCAAAAAA [XGTACX_site608],11 ± 0.59
9,TATATACAAATATGCTGTACAAAAAAAAAAAAAAAA [XGTACX_site4732],10.7 ± 0.95
10,TATGTTTAAATATATTGTACGCACGTATGTTTTTAA [XGTACX_site1108],11.4 ± 0.82
11,TTTATGCACGCGTGCACACACATATGAAAAAAGGTA [CACACA_site3315],10.8 ± 0.5
12,ATATATATATATATATGTACATATTCATCTTATTCT [XGTACX_site1537],11.2 ± 0.54
13,AATACCTTTTAATAATGTACAAACAAAAATTAGAGA [XGTACX_site6850],10.9 ± 0.33
14,TATATATTAAAAATAGTGCAAAATAATATATATATA [GTGCAC_site9716],10 ± 0.37
15,TTTTATTTATATTATACACACAAGGAAAAAAAAAAA [CACACA_site7690],10.2 ± 0.26
16,ACAAATAAATATATATGTACATATATTTTTTTATTT [XGTACX_site2989],11.2 ± 0.64
17,ATGTCTATATATTAAGGTACACATATATGCTATTCA [XGTACX_site6008],11.1 ± 0.57
18,GTTTAACTGTTTTATACACACAATGTATCCAATAAA [CACACA_site5612],10.2 ± 0.28
19,ATATTAATTTTTATTACACACTCTCAATTTTTATTT [CACACA_site58],9.94 ± 0.014
20,AAAATATACATAAACACACACAAAACGTTTAAGAAA [CACACA_site1071],9.935 ± 0.007
21,AAAAAAAAAAAAAAAGTACACACTTTTGCGTACATG [CACACA_site3097],12.3 ± 1.4
22,TTTTAGTTAATTCATGCATGTAAAGTTTTATTTATA [TGCATGCA_site252],9.69 ± 0.21
23,TTATGCGTTTGCAAAAGTACATATCTATTATTTTTA [XGTACX_site7609],11 ± 0.86

row,Sequence,gcPBM binding intensity (ln)
1,TTATTTTATTTTGAAGCATGCTTTTTGCTGTGATAA [TGCATGCA_site278],9.8 ± 0.38
2,AAATAATATTTATACACACACACATATTTATATACA [CACACA_site6403],10.04 ± 0.035
3,TTTTTTTTTTTTTGTTGTACCCATCATATATACATA [XGTACX_site4342],11.2 ± 1
4,GGTCTTATTTTTAGTAGTACAAATATAATATACATA [XGTACX_site6483],11.4 ± 0.83
5,CTAAACAGAATTATCACACATATAAATATAAACATA [CACACA_site4560],9.725 ± 0.007
6,ATATATTACATATGTGTGCACGTTCCAAAATTTTTA,10.6 ± 0.19
7,AAAATACACGCATACACACACACACGCGCACATATA [CACACA_site6448],10.5 ± 0.16
8,TTTTCATGTTGTAAAGCATGCTTTACTCATAAAAAA [TGCATGCA_site917],9.95 ± 0.23
9,ATTATTAAAAGAAGAAGTACTTATATATTAATATTA [XGTACX_site5227],11.3 ± 0.83
10,TATAAAAATATTTAATGTACGAATCTGTGATATATC [XGTACX_site7881],10.9 ± 0.66
11,TTAAAATAGATATTAGTGCAAAAAAAAAAAAATAAA,9.9 ± 0.085
12,TTTTGATATAAATATTAGATTAATAAATAAAAAAAT [CACACA_negctrl_site1635],9.705 ± 0.078
13,TTTTTTGTTTGAATGGTGCATTTTGTAATTATATTT,10.2 ± 0.31
14,ATAATATCATAATATTGTACATATTTTATTTTAAAT [XGTACX_site1115],11.1 ± 0.54
15,CAACTAACATATATTCAACACACATATACCTTCAAC [CACACA_site8988],10.14 ± 0.049
16,GTTAGAATTGTTAGGTGGTCAAAAAGGAGAAAAAAA [XGTACX_site2086],11.3 ± 0.89
17,TTTTTTTAGTTAATTAAACACACAAAAAAAAAAATA [CACACA_site9301],10.1 ± 0.4
18,TAACATATTATATATACATGCATACGTGAACTAATC [TGCATGCA_site888],10.2 ± 0.14
19,ATTGTATATGTATATGCACACAATATATGTACTTAT [CACACA_site2611],11.3 ± 0.95
20,GATATATTATTTGAATGTACATATTATATTTATATT [XGTACX_site907],11 ± 0.54
21,TTTTTAATTAACTTTTTATAAATAAATAAAAATATA [GTGCAC_negctrl_site334],9.76 ± 0.26

# Source: the supplement of paper PMC11417369
